Results reported in patent US20070004766A1, “Methods for relaxation of smooth muscle contractions using Trospium” (priority 2005, published 2007).
pKi: −log10 of the molar value. Counter-ions that a name gives are not always drawn. Like-named read-outs stand apart in the source and are kept apart here.

Tests used:
[1] = test system: cardiac muscle strips (atrial tissues); conditions: for contractility (force of cardiac muscle contractions) as percent of pre-drug contractile force: paced 120 beats per minute, mean and SEM, N = 9; for impairment of cardiac contractility (in words): 0.01 to 0.3 mmol/L, rat atrial strips
[2] = biological target: T1, human recombinant muscarinic receptor M-4 (Homo sapiens, UniProt P08173); assay: biochemical
T1 sequence (P08173 1-479): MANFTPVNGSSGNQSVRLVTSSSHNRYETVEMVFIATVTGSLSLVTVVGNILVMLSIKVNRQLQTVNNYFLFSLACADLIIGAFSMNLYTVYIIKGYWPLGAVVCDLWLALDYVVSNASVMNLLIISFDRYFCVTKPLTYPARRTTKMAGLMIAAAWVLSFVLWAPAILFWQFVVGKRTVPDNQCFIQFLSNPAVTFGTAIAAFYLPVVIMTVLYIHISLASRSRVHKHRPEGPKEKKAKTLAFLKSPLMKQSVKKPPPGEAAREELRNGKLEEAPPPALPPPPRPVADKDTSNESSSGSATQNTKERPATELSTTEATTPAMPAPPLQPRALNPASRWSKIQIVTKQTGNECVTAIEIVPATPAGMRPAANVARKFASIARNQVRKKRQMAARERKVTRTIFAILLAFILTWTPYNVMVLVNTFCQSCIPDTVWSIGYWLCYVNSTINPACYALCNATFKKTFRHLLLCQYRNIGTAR

Row | impairment of cardiac contractility (in words) ([1]; hydrochloride) | Compound | contractility (force of cardiac muscle contractions) as percent of pre-drug contractile force ([1]; 0.01 mmol/L) [%] | contractility (force of cardiac muscle contractions) as percent of pre-drug contractile force ([1]; 0.05 mmol/L) [%] | contractility (force of cardiac muscle contractions) as percent of pre-drug contractile force ([1]; 0.1 mmol/L) [%] | contractility (force of cardiac muscle contractions) as percent of pre-drug contractile force ([1]; 0.3 mmol/L) [%] | impairment of cardiac contractility (in words) [1] | unwanted side effects on cardiac contractility (in words) ([1]; concentrations as high as 0.3 mmol/L) | pKi [2]
1 | severely impaired | CCN(CC)CC#CCOC(=O)C(O)(c1ccccc1)C1CCCCC1 (stereo not drawn) [Oxybutynin, oxybutynin hydrochloride] | 83 ± 5 | 52 ± 7 | 27 ± 5 | 19 ± 5 | – | – | –
2 | – | O=C(OC1CC2CCC(C1)[N+]21CCCC1)C(O)(c1ccccc1)c1ccccc1.[Cl-] (stereo not drawn) [Trospium, 3α-hydroxy-spiro[1αH,5αH-nortropane-8,1′-pyrrolidinium]chloride benzilate] | 96 ± 3 | 92 ± 5 | 81 ± 7 | 74 ± 8 | no significant impairment | did not have unwanted side effects on cardiac contractility | 9.00
